# Laboratory results as given in the supplement of paper PMC8728848.
# The list shows a part of the results.
# What was measured:
# Assay in all cases: glycan array binding signal (z-score within array); higher = stronger binding
# Details in all cases: glycan notation: IUPAC condensed, linker removed
# [1] = molecular target: Gal(a1-4)Gal(b1-4)GlcNAc(b1-2)Man(a1-3)[Gal(a1-4)Gal(b1-4)GlcNAc(b1-2)Man(a1-6)]Man(b1-4)GlcNAc(b1-4)GlcNAc
# In short: (§1)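 Negative Z-scores can be read as non-binding. The Z-score is calculated within each array and then averaged across arrays of one protein sequence at different concentrations or buffers and across linkers. Arrays, 3228 in all, were curated from the Consortium for Functional Glycomics database and kept only where the protein sequence was available.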
# [2] = molecular target: Gal(a1-4)Gal(b1-4)GlcNAc(b1-3)Gal(b1-4)Glc
# In short: as §1
# Gal(a1-4)GlcNAc = molecular target: Gal(a1-4)GlcNAc
# In short: as §1
# Gal(a1-6)Glc = molecular target: Gal(a1-6)Glc
# In short: as §1
# Gal(b1-2)Gal = molecular target: Gal(b1-2)Gal
# In short: as §1
# Gal(b1-3)Gal = molecular target: Gal(b1-3)Gal
# In short: as §1
# Gal(b1-3)Gal(b1-4)GlcNAc = molecular target: Gal(b1-3)Gal(b1-4)GlcNAc
# In short: as §1
# [3] = molecular target: Gal(b1-3)Gal(b1-4)GlcNAc(b1-2)Man(a1-3)[Gal(b1-3)Gal(b1-4)GlcNAc(b1-2)Man(a1-6)]Man(b1-4)GlcNAc(b1-4)GlcNAc
# In short: as §1
# Gal(b1-3)GalNAc = molecular target: Gal(b1-3)GalNAc
# In short: as §1
# [4] = molecular target: Gal(b1-3)GalNAc(a1-3)[Fuc(a1-2)]Gal(b1-4)Glc
# In short: as §1
# [5] = molecular target: Gal(b1-3)GalNAc(a1-3)[Fuc(a1-2)]Gal(b1-4)GlcNAc
# In short: as §1
# [6] = molecular target: Gal(b1-3)GalNAc(b1-3)Gal(a1-4)Gal(b1-4)Glc
# In short: as §1
# [7] = molecular target: Gal(b1-3)GalNAc(b1-4)Gal(b1-4)Glc
# In short: as §1
# [8] = molecular target: Gal(b1-3)GalNAc(b1-4)[Neu5Ac(a2-3)]Gal(b1-4)Glc
# In short: as §1
# Gal(b1-3)GlcNAc = molecular target: Gal(b1-3)GlcNAc
# In short: as §1
# [9] = molecular target: Gal(b1-3)GlcNAc(a1-6)Gal(b1-4)GlcNAc
# In short: as §1
# [10] = molecular target: Gal(b1-3)GlcNAc(b1-2)Man(a1-3)[Gal(b1-3)GlcNAc(b1-2)Man(a1-6)]Man(b1-4)GlcNAc(b1-4)GlcNAc
# In short: as §1
# [11] = molecular target: Gal(b1-3)GlcNAc(b1-2)Man(a1-3)[Gal(b1-3)GlcNAc(b1-2)Man(a1-6)]Man(b1-4)GlcNAc(b1-4)[Fuc(a1-6)]GlcNAc
# In short: as §1
# [12] = molecular target: Gal(b1-3)GlcNAc(b1-2)[Gal(b1-3)GlcNAc(b1-6)]Man(a1-6)[Gal(b1-3)GlcNAc(b1-2)Man(a1-3)]Man(b1-4)GlcNAc(b1-4)GlcNAc
# In short: as §1
# [13] = molecular target: Gal(b1-3)GlcNAc(b1-3)Gal(b1-3)GlcNAc
# In short: as §1
# [14] = molecular target: Gal(b1-3)GlcNAc(b1-3)Gal(b1-4)Glc
# In short: as §1
# [15] = molecular target: Gal(b1-3)GlcNAc(b1-3)Gal(b1-4)GlcNAc
# In short: as §1
# [16] = molecular target: Gal(b1-3)GlcNAc(b1-3)Gal(b1-4)GlcNAc(b1-6)[Gal(b1-3)GlcNAc(b1-3)]Gal(b1-4)Glc
# In short: as §1
# [17] = molecular target: Gal(b1-3)GlcNAc(b1-3)Gal(b1-4)[Fuc(a1-3)]GlcNAc(b1-6)[Gal(b1-3)GlcNAc(b1-3)]Gal(b1-4)Glc
# In short: as §1
# [18] = molecular target: Gal(b1-3)GlcNAc(b1-3)GalNAc
# In short: as §1
# [19] = molecular target: Gal(b1-3)GlcNAc(b1-6)Gal(b1-4)GlcNAc
# In short: as §1
# [20] = molecular target: Gal(b1-3)[Fuc(a1-4)]GlcNAc
# In short: as §1
# [21] = molecular target: Gal(b1-3)[Fuc(a1-4)]GlcNAc(b1-2)Man(a1-3)[Gal(b1-3)[Fuc(a1-4)]GlcNAc(b1-2)Man(a1-6)]Man(b1-4)GlcNAc(b1-4)GlcNAc
# In short: as §1
# [22] = molecular target: Gal(b1-3)[Fuc(a1-4)]GlcNAc(b1-2)Man(a1-3)[Gal(b1-3)[Fuc(a1-4)]GlcNAc(b1-2)Man(a1-6)]Man(b1-4)GlcNAc(b1-4)[Fuc(a1-6)]GlcNAc
# In short: as §1
# [23] = molecular target: Gal(b1-3)[Fuc(a1-4)]GlcNAc(b1-3)Gal(b1-3)[Fuc(a1-4)]GlcNAc
# In short: as §1
# [24] = molecular target: Gal(b1-3)[Fuc(a1-4)]GlcNAc(b1-3)Gal(b1-4)GlcNAc
# In short: as §1
# [25] = molecular target: Gal(b1-3)[Fuc(a1-4)]GlcNAc(b1-3)Gal(b1-4)[Fuc(a1-3)]GlcNAc
# In short: as §1
# [26] = molecular target: Gal(b1-3)[GlcNAc(b1-6)]GalNAc
# In short: as §1
# [27] = molecular target: Gal(b1-3)[Neu5Ac(a2-6)]GalNAc
# In short: as §1
# [28] = molecular target: Gal(b1-3)[Neu5Ac(a2-6)]GlcNAc(b1-6)Gal(b1-4)Glc
# In short: as §1
# [29] = molecular target: Gal(b1-3)[Neu5Ac(b2-6)]GalNAc
# In short: as §1
# Gal(b1-4)Gal = molecular target: Gal(b1-4)Gal
# In short: as §1
# [30] = molecular target: Gal(b1-4)GalNAc(a1-3)[Fuc(a1-2)]Gal(b1-4)GlcNAc
# In short: as §1
binder,measurement,setting,value
Gal 3 (Canis lupus) (protein) MADSFSLNDALSGSGNPNPQGWPGPWGNQPAGAGGYPGASYPGAYPGQAPPGGYPGQAPPGGYPGQAPPGGYPGQAPPGGYPGQAPPGGYPGQAPPGTYPGPTAPAYPGPTAPGTQPGQPSGPGAYPPPGQPSAPGAYPAAGPFGIPAGPLTVPYDLPLPGGVKPRMLITILGTVRPSANRLALDFKRGNDVAFHFNPRFNEDNKRVIVCNTKLDNIWGKEERQAAFPFESGKPFKIQVLVESDHFKVAVNDAHLLQYNHRMKNLPEISKLGISGDIDLTSASYAMI,glycan array binding signal (z-score),[1],-0.192
same,glycan array binding signal (z-score),[2],0.131
same,glycan array binding signal (z-score),Gal(a1-4)GlcNAc,-0.277
same,glycan array binding signal (z-score),Gal(a1-6)Glc,-0.26
same,glycan array binding signal (z-score),Gal(b1-2)Gal,-0.259
same,glycan array binding signal (z-score),Gal(b1-3)Gal,-0.246
same,glycan array binding signal (z-score),Gal(b1-3)Gal(b1-4)GlcNAc,-0.204
same,glycan array binding signal (z-score),[3],1.38
same,glycan array binding signal (z-score),Gal(b1-3)GalNAc,-0.265
same,glycan array binding signal (z-score),[4],-0.09
same,glycan array binding signal (z-score),[5],1.23
same,glycan array binding signal (z-score),[6],-0.248
same,glycan array binding signal (z-score),[7],-0.263
same,glycan array binding signal (z-score),[8],-0.258
same,glycan array binding signal (z-score),Gal(b1-3)GlcNAc,-0.231
same,glycan array binding signal (z-score),[9],-0.261
same,glycan array binding signal (z-score),[10],-0.146
same,glycan array binding signal (z-score),[11],-0.196
same,glycan array binding signal (z-score),[12],-0.153
same,glycan array binding signal (z-score),[13],0.142
same,glycan array binding signal (z-score),[14],-0.074
same,glycan array binding signal (z-score),[15],0.427
same,glycan array binding signal (z-score),[16],0.348
same,glycan array binding signal (z-score),[17],-0.143
same,glycan array binding signal (z-score),[18],-0.224
same,glycan array binding signal (z-score),[19],-0.231
same,glycan array binding signal (z-score),[20],-0.26
same,glycan array binding signal (z-score),[21],-0.163
same,glycan array binding signal (z-score),[22],-0.197
same,glycan array binding signal (z-score),[23],-0.262
same,glycan array binding signal (z-score),[24],-0.186
same,glycan array binding signal (z-score),[25],-0.258
same,glycan array binding signal (z-score),[26],-0.249
same,glycan array binding signal (z-score),[27],-0.252
same,glycan array binding signal (z-score),[28],-0.257
same,glycan array binding signal (z-score),[29],-0.259
same,glycan array binding signal (z-score),Gal(b1-4)Gal,-0.154
same,glycan array binding signal (z-score),[30],2.74
